# The campaign covered roughly 340,000 compounds. About 12,000 (3.5%) were called active. The inconclusive results got no clear call from the source; some entries with a clear call stand among them for comparison. The call rests on the fitted dose curve; in most records, active means well fitted inhibition curve with a large enough effect; inconclusive means small, poorly fitted or top-dose-only effect, or another doubt; inactive means no such curve, though single readings can be large or run the other way. Potencies of inconclusive entries are left out as doubtful fits. More than one record can exist for a structure, and the calls need not agree.
# Experiment: qHTS Assay for Inhibitors of Hepatitis C Virus (HCV)
# Details: Huh7.5.1 HCVcc-Cre (HCVcc is cell-culture hepatitis C virus) infection, luciferase reporter, 44 h; series mostly up to 41.8 µM
# Procedure, shortened: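 1,000 cells/well; 4 h culture; + compound; + HCVcc-Cre (~0.5 moi); 44 h; luciferase substrate, RT 15 min; read 15 sec.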
# Potency means the concentration at half of the fitted maximal effect; tags describe the fitted curve by direction and shape.
row,SMILES,Potency
1,Fc1ccc(-n2nnc(-c3cccnc3)n2)cc1,inactive
2,CCc1ccc(NC(=S)N(Cc2cccnc2)Cc2ccco2)cc1,"inconclusive [inhibitor, single point]"
3,O=C(COc1ccccc1-c1ccccc1)N/N=C/c1ccncc1,"inconclusive [inhibitor, single point]"
4,O=C(CSc1nc2ccc(Cl)cc2[nH]1)c1c[nH]c2ccccc12,inactive
5,Clc1ccc(OCCSc2nnnn2C2CCCCC2)cc1,inactive
6,CCOC(=O)C1CCCN(C(=O)C2CCN(Cc3nc(-c4ccc(Cl)cc4)oc3C)CC2)C1 (stereo not given),active: 11.2 µM
7,CCN(CC)c1ccc(/C=N/NC(=S)NC)c(O)c1,"inconclusive [inhibitor, single point]"
8,COc1cccc(C2C(C(=O)c3cccs3)=C(O)C(=O)N2CCN2CCOCC2)c1OC (stereo not given),inactive
9,COc1ccc(NC(=O)N(Cc2cc3cc(C)ccc3[nH]c2=O)CC2CCCO2)cc1 (stereo not given),"inconclusive [inhibitor, single point]"
10,O=C(CNC(c1ccccc1)c1ccccc1)Nc1ccccc1-c1ccccc1,"inconclusive [inhibitor, single point]"
11,CC(=O)N/N=C(\C)CC(=O)Nc1cccc(C(F)(F)F)c1,"inconclusive [inhibitor, single point]"
12,O=C(CN1C(=O)C2C3C=CC(C3)C2C1=O)Nc1cccc(S(=O)(=O)N2CCCC2)c1 (stereo not given),"inconclusive [inhibitor, full curve]"
13,COc1ccc(S(=O)(=O)Nc2ccccc2-c2nc3ccccc3[nH]c2=O)cc1,"inconclusive [inhibitor, single point]"
14,Cc1ccc(C)c(NS(=O)(=O)c2cc(C(=O)Nc3ccccc3-c3ccccc3)ccc2C)c1,"inconclusive [inhibitor, single point]"
15,CCOc1ccc(N(CC(=O)N/N=C(\C)c2cccc(NC(C)=O)c2)S(=O)(=O)c2ccccc2)cc1,"inconclusive [inhibitor, partial curve]"
16,Cc1ccc(C)c(N2CCN(C(=O)c3ccc4nsnc4c3)CC2)c1,"inconclusive [inhibitor, partial curve]"
17,COc1ccc(CC(C)N2CCN(c3cccc(C(F)(F)F)c3)CC2)cc1OC (stereo not given),active: 11.2 µM
18,C/C=C/COC(=O)c1[nH]c2c(c1C)C(=O)CC(c1ccco1)C2 (stereo not given),"inconclusive [inhibitor, partial curve]"
19,CCN(c1ccccc1)S(=O)(=O)c1cc(C(=O)NCC(c2ccc(OC)cc2)N(C)C)ccc1C (stereo not given),active: 10 µM
20,COC(=O)CSc1nc2sc3c(c2c(=O)n1-c1ccc(OC)cc1)CCN(C)C3,inactive
21,CC(C)c1ccc(-c2noc(C3CCCN(S(C)(=O)=O)C3)n2)cc1 (stereo not given),"inconclusive [inhibitor, single point]"
22,CCC(C)c1ccc(O)c(NC(=S)NC(=O)c2cccnc2)c1 (stereo not given),inactive
23,CCCc1c(C)nc2c(OC)cccc2c1SCC(=O)O,"inconclusive [inhibitor, single point]"
24,Cc1c(Cl)cccc1NC(=O)CN(C1CCCCC1)S(C)(=O)=O,inactive

row,SMILES,Potency
1,CN1CCN(c2ccc(NC(=O)C(C)(c3ccccc3)c3ccccc3)cc2)CC1,"inconclusive [inhibitor, partial curve]"
2,COc1cccc(CNC(=O)C2CCN(S(=O)(=O)c3ccc(Br)s3)CC2)c1,"inconclusive [inhibitor, single point]"
3,CCCCn1c(SCC(=O)Nc2cccc(OC)c2)nc2ccc(N3CCOCC3)cc2c1=O,active: 8.91 µM
4,CCOC(=O)c1c(NC(=S)Nc2ccc(F)cc2)sc2c1CCC2,"inconclusive [inhibitor, full curve, poor fit]"
5,O=C1CC[C@H](OCc2ccccc2)CCN1[C@H](CSc1ccccc1)Cc1ccccc1,"inconclusive [inhibitor, single point]"
6,Cn1cccc1Cc1nnc(SCC(=O)N2CCOCC2)n1-c1ccc(F)cc1,inactive
7,N#Cc1c(N)nc2c3c(sc(=N)c2c1N)NC(=O)CC3c1ccccc1Cl (stereo not given),"inconclusive [inhibitor, single point]"
8,COc1ccccc1NC(=O)c1sc2nc(-c3ccco3)ccc2c1N,inactive
9,CCN(CC)S(=O)(=O)c1ccc(N2CC(C(=O)NCCc3c[nH]c4ccccc34)CC2=O)cc1 (stereo not given),inactive
10,CN(C)C(=O)c1ccc(NC(=O)CSc2nc3ccccc3[nH]2)cc1,"inconclusive [inhibitor, full curve]"
11,CSC1(SC2=NCCN2)SC2(NCCN2)S1,"inconclusive [inhibitor, single point]"
12,CC(C)c1c(C(=O)N/N=C/c2cccc(OCc3ccccc3)c2)nnn1-c1nonc1N,"inconclusive [inhibitor, single point]"
13,COc1cccc(OC)c1OCCCN1CCC(Cc2ccccc2)CC1,active: 11.2 µM
14,C=CCn1c(SCC(=O)NCC2CCCO2)nc2sc(CC)cc2c1=O (stereo not given),"inconclusive [inhibitor, partial curve]"
15,O=C(CSc1nc(-c2ccco2)cc(C(F)(F)F)n1)Nc1ccc(C(=O)N2CCCCC2)cc1,active: 11.2 µM
16,Cc1ccc(C(=O)N2CCN(Cc3ccc4c(c3)OCO4)CC2)c(Cl)c1,active: 11.2 µM
17,Cc1nc(N2CCC(C)CC2)c2c(C)c(C(=O)Nc3cccc(C(F)(F)F)c3)sc2n1,"inconclusive [inhibitor, partial curve, poor fit]"
18,COc1cccc(Nc2nc(-c3cccc(N4C(=O)c5ccccc5C4=O)c3)cs2)c1,"inconclusive [inhibitor, full curve]"
19,COc1ccc(CCNC(=O)Cc2ccc(OCc3ccccc3)c(OC)c2[N+](=O)[O-])cc1OCc1ccccc1,"inconclusive [inhibitor, partial curve]"
20,N#CCCN(C(=O)COC(=O)CNC(=O)c1ccc(-c2ccccc2)cc1)c1ccc(F)cc1,"inconclusive [inhibitor, partial curve]"
21,CN(CCCC(=O)Nc1ccncc1)S(=O)(=O)c1ccc(Cl)cc1,active: 10 µM
22,O=C(O)c1ccc(-c2ccc(/C=C3\NC(=O)N(Cc4ccc(Cl)cc4)C3=O)o2)cc1Cl,inactive
23,COc1ccc(C(CNC(=O)c2cccc(NC(=O)c3cccs3)c2)N2CCCC2)cc1 (stereo not given),"inconclusive [inhibitor, single point]"
24,COc1ccc(-n2ncc3c(NCc4cccs4)ncnc32)cc1,"inconclusive [inhibitor, partial curve]"

row,SMILES,Potency
1,Cc1nnc(Sc2cc(C(=O)NC3CC3)c3ccccc3n2)s1,"inconclusive [inhibitor, single point]"
2,O=C(O)C1=C[C@H](c2csc3ccccc23)C[C@H](OCc2ccc(CO)cc2)O1,inactive
3,CCCCN(CC)CCNC(=O)c1cc2cc3ccc(Cl)cc3nc2o1,"inconclusive [inhibitor, partial curve, poor fit]"
4,CCOc1cc(S(=O)(=O)NC2CC(C)(C)NC(C)(C)C2)ccc1F,"inconclusive [inhibitor, single point]"
5,Brc1cccc(-c2n[nH]c(-c3ccccc3)n2)c1,"inconclusive [inhibitor, single point]"
6,COc1ccc(NS(=O)(=O)c2cccc(NC(=O)NCCCl)c2)cc1,active: 7.94 µM
7,CC(=O)NCCc1ccc(S(=O)(=O)Nc2ccc(NC(=O)c3ccc(F)cc3)cc2)cc1,active: 10 µM
8,CCN(CC)CCNC(=O)c1ccc(NC(=O)Cc2ccccc2F)cc1,inactive
9,CC(=O)Nc1ccc(S(=O)(=O)N2CCN(c3nc(NC4CCCC4)c4ccccc4n3)CC2)cc1,active: 7.94 µM
10,CN(C)P(=O)(Nc1cccc2ccccc12)Nc1cccc2ccccc12,inactive
11,Cc1ccc2cc(CN(CCN3CCOCC3)Cc3nnnn3Cc3ccco3)c(=O)[nH]c2c1C,inactive
12,COc1ccc([N+](=O)[O-])cc1N(CC(=O)Nc1ccccc1C(=O)NC(C)C)S(C)(=O)=O,"inconclusive [inhibitor, partial curve, poor fit]"
13,CCOc1nc(Nc2ccc(OC)c(Cl)c2)nc(OCC)n1,"inconclusive [inhibitor, single point]"
14,CCOC(=O)c1sc(Nc2nc3c(OC)cccc3s2)nc1C,inactive
15,NC(=S)N/N=C/c1ccc(-c2cc(Cl)ccc2Cl)o1,"inconclusive [inhibitor, partial curve]"
16,Cc1cc(C(=O)COC(=O)/C=C/c2cccc(Br)c2)c(C)n1C,"inconclusive [inhibitor, partial curve]"
17,CC(C)CNC(=O)c1ccc(COc2ccc(Cl)cc2Cl)o1,active: 12.6 µM
18,COc1ccc(C(CNC(=O)c2cc(S(=O)(=O)N3CCCCC3)ccc2C)N2CCCC2)cc1 (stereo not given),"inconclusive [inhibitor, single point]"
19,CC1CCCCC1NC(=O)CCNS(=O)(=O)c1ccc(Cl)cc1 (stereo not given),inactive
20,CCNC(=S)N/N=C(\C)c1ccc2c(c1)OCCO2,"inconclusive [inhibitor, single point]"
21,CCN(CC)c1ccc(C(=O)Nc2ccccc2)cc1[N+](=O)[O-],"inconclusive [inhibitor, single point]"
22,CC(=O)N(CC(=O)N(CC(=O)O)c1ccc(Cl)cc1)c1ccc(Cl)cc1,inactive
